Laboratory results published in the supplement of paper PMC10600219.
Structures can show the parent of a compound that is named as a salt. What follows is the remainder of the data, with few or none of the lowest values.

How the values were obtained:
NCI-H2228 alectinib-DTP = experiment: cell viability relative to vehicle (fraction of vehicle); NCI-H2228 is an ALK-positive lung cancer line and DTP means drug-tolerant persister; higher = less growth inhibition; settings: 100 nM; treatment time 6 days
Procedure, shortened: (§1)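 Parental NCI-H2228 cells and drug-tolerant persister cells (made with 1000 nM of a targeted drug for 13 days) were seeded in 384-well plates. The next day, the 3114-agent TargetMol anti-cancer compound library was added at 100 nM, with DMSO as vehicle. After 6 days, ATP was read with the CellTiter-Glo 3D Cell Viability Assay. Each value is cell viability relative to vehicle-treated cells.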

NCI-H2228 parental = experiment: as above; settings: 100 nM; treatment time 6 days
Procedure, shortened: as §1

COC(=O)C(CCCN=C(N)N)NS(=O)(=O)c1ccc(C)cc1 (centres undefined) [TOS-ARG-OME hydrochloride]
cell viability (NCI-H2228 alectinib-DTP): 0.844 | cell viability (NCI-H2228 parental): 1.23

Cc1ccccc1-n1c(Cn2nc(-c3cccc(O)c3)c3c(N)ncnc32)nc2cccc(C)c2c1=O
cell viability (NCI-H2228 alectinib-DTP): 0.922 | cell viability (NCI-H2228 parental): 1.08

COc1cc(N2CCN(C(C)=O)CC2)ccc1Nc1ncc(Cl)c(Nc2ccc(N3CCN(C(C)=O)CC3)cc2OC)n1
cell viability (NCI-H2228 alectinib-DTP): 1.01 | cell viability (NCI-H2228 parental): 0.628

Cc1nc2c(-c3cnc(N)nc3)nc(N3CCOCC3)nc2n1C(C)C
cell viability (NCI-H2228 alectinib-DTP): 0.655 | cell viability (NCI-H2228 parental): 0.611

CCOc1cc(NC(C)=O)ccc1C(=O)OC [Ethopabate]
cell viability (NCI-H2228 alectinib-DTP): 0.993 | cell viability (NCI-H2228 parental): 1.21

CN1C2CCC1CC(OC(=O)C(O)c1ccccc1)C2 (centres undefined) [Homatropine Bromide]
cell viability (NCI-H2228 alectinib-DTP): 1.02 | cell viability (NCI-H2228 parental): 1.05

Cc1ccc(C(=O)NCCCCCC(=O)Nc2ccccc2N)cc1
cell viability (NCI-H2228 alectinib-DTP): 1.04 | cell viability (NCI-H2228 parental): 1.06
